In the supplement of paper PMC10369915 one finds enrichment score data, which are given here for 19 molecules.

Some of the results follow. Rule as the data show it: active = 3.2 or more and inactive = the rest. Most of these values are background signal.
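Also: displayed peptides selected on beads carrying the immobilized SH2 domain, with library peptides lacking any tyrosine serving as negative controls.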

One experiment has as its target SHP2 C-SH2 domain E139D. The experiment is described as follows: enrichment score (SH2-bound / input frequency) (ratio); bacterial display of known human phosphotyrosine sites (pTyr-Var adds point mutants) read by sequencing; higher = stronger binding; tyrosines were phosphorylated by kinases first. Conditions: peptide library: pTyr-Var.
Take AKLVQYFMEHH [PTPN11_Y80_E76K_YF]: the enrichment score was active: 3.82.
The same measure, in the same setting: next, DYYDLYGGKKF [PTPN11_Y66_E69K]: inactive: 0.836; GFFDLYGGEKF [PTPN11_Y66_D61G_YF]: inactive: 1.3; AALVQYYMEHH [PTPN11_Y80_E76A]: inactive: 1.49.
Same read-out and setting: next, DDYDLYGGEKF [PTPN11_Y66_Y62D]: inactive: 0.682; AELVRYYMEHH [PTPN11_Y80_Q79R]: inactive: 1.15; DYYDLYGGQKF [PTPN11_Y66_E69Q]: inactive: 0.956.
With ADLVQYYMEHH [PTPN11_Y80_E76D], the enrichment score is inactive: 1.33.
In the case of DFFDLYGGKKF [PTPN11_Y66_E69K_YF], the enrichment score is inactive: 1.11.
On the same count and under the same terms, next, ADLVQYFMEHH [PTPN11_Y80_E76D_YF]: inactive: 1.18; DDFDLYGGEKF [PTPN11_Y66_Y62D_YF]: inactive: 0.773.
For the molecule AVLVQYYMEHH [PTPN11_Y80_E76V], the enrichment score is active: 3.25.
On the same count and under the same terms, next, AELVQYFMEHH [PTPN11_Y80_YF]: inactive: 1.24; DYCDLYGGEKF [PTPN11_Y66_Y63C]: inactive: 1.37; DYYDLYGGEKL [PTPN11_Y66_F71L]: inactive: 1.01.
In the case of DYYDLYGGEKF [PTPN11_Y66], the enrichment score is inactive: 1.59.
Still for that read-out and setting: to FFFDLYGGEKF [PTPN11_Y66_D61Y_YF] belongs inactive: 1.81.
Still for that read-out and setting: to DFFDLYGGEKL [PTPN11_Y66_F71L_YF] belongs inactive: 1.04; to AKLVQYYMEHH [PTPN11_Y80_E76K], inactive: 2.35.

For a further experiment, the target named is SHP2 C-SH2 domain wild-type. The description is as above. Conditions: peptide library: pTyr-Var.
As for AKLVQYFMEHH [PTPN11_Y80_E76K_YF], the enrichment score is active: 3.53.
On the same count and under the same terms, to DYYDLYGGKKF [PTPN11_Y66_E69K] belongs inactive: 0.789; to GFFDLYGGEKF [PTPN11_Y66_D61G_YF], inactive: 1.25; to AALVQYYMEHH [PTPN11_Y80_E76A], inactive: 1.51.
Still for that read-out and setting: to DDYDLYGGEKF [PTPN11_Y66_Y62D] belongs inactive: 0.567; to AELVRYYMEHH [PTPN11_Y80_Q79R], inactive: 1.21; to DYYDLYGGQKF [PTPN11_Y66_E69Q], inactive: 0.664.
For the molecule ADLVQYYMEHH [PTPN11_Y80_E76D], the enrichment score was inactive: 1.24.
Consider DFFDLYGGKKF [PTPN11_Y66_E69K_YF], for which the enrichment score was inactive: 0.91.
Same read-out and setting: to ADLVQYFMEHH [PTPN11_Y80_E76D_YF] belongs inactive: 1.38; to DDFDLYGGEKF [PTPN11_Y66_Y62D_YF], inactive: 0.757.
The same measure, in the same setting: to AVLVQYYMEHH [PTPN11_Y80_E76V] belongs inactive: 2.61; to AELVQYFMEHH [PTPN11_Y80_YF], inactive: 1.13; to DYCDLYGGEKF [PTPN11_Y66_Y63C], inactive: 1.31.
Still for that read-out and setting: to DYYDLYGGEKL [PTPN11_Y66_F71L] belongs inactive: 1.03; to DYYDLYGGEKF [PTPN11_Y66], inactive: 1.17; to FFFDLYGGEKF [PTPN11_Y66_D61Y_YF], inactive: 1.48.
Consider DFFDLYGGEKL [PTPN11_Y66_F71L_YF], for which the enrichment score is inactive: 1.04.
Still for that read-out and setting: to AKLVQYYMEHH [PTPN11_Y80_E76K] belongs inactive: 2.68.

The next experiment concerns the target SHP2 N-SH2 domain L43F. Described as above. Conditions: peptide library: pTyr-Var.
With AKLVQYFMEHH [PTPN11_Y80_E76K_YF], the enrichment score is active: 3.87.
The same measure, in the same setting: to DYYDLYGGKKF [PTPN11_Y66_E69K] belongs inactive: 0.75; to GFFDLYGGEKF [PTPN11_Y66_D61G_YF], inactive: 1.4.
Still for that read-out and setting: next, AALVQYYMEHH [PTPN11_Y80_E76A]: inactive: 2.03; DDYDLYGGEKF [PTPN11_Y66_Y62D]: inactive: 0.601; AELVRYYMEHH [PTPN11_Y80_Q79R]: inactive: 1.38.
Same read-out and setting: next, DYYDLYGGQKF [PTPN11_Y66_E69Q]: inactive: 0.826; ADLVQYYMEHH [PTPN11_Y80_E76D]: inactive: 1.3.
Regarding DFFDLYGGKKF [PTPN11_Y66_E69K_YF], the enrichment score is inactive: 0.93.
As for ADLVQYFMEHH [PTPN11_Y80_E76D_YF], the enrichment score was inactive: 1.24.
The same measure, in the same setting: to DDFDLYGGEKF [PTPN11_Y66_Y62D_YF] belongs inactive: 1.07; to AVLVQYYMEHH [PTPN11_Y80_E76V], inactive: 3.17; to AELVQYFMEHH [PTPN11_Y80_YF], inactive: 1.23.
The same measure, in the same setting: next, DYCDLYGGEKF [PTPN11_Y66_Y63C]: inactive: 1.16; DYYDLYGGEKL [PTPN11_Y66_F71L]: inactive: 0.848; DYYDLYGGEKF [PTPN11_Y66]: inactive: 1.35.
For the molecule FFFDLYGGEKF [PTPN11_Y66_D61Y_YF], the enrichment score was inactive: 2.03.
The same measure, in the same setting: to DFFDLYGGEKL [PTPN11_Y66_F71L_YF] belongs inactive: 1.03; to AKLVQYYMEHH [PTPN11_Y80_E76K], active: 4.58.

The target of another experiment is SHP2 N-SH2 domain T42A. Described as above. The conditions noted are these: peptide library: pTyr-Var.
Take AKLVQYFMEHH [PTPN11_Y80_E76K_YF]: the enrichment score was inactive: 3.02.
The same measure, in the same setting: to DYYDLYGGKKF [PTPN11_Y66_E69K] belongs inactive: 0.858.
Same read-out and setting: to GFFDLYGGEKF [PTPN11_Y66_D61G_YF] belongs inactive: 1.23.
Still for that read-out and setting: next, AALVQYYMEHH [PTPN11_Y80_E76A]: inactive: 1.17.
As to DDYDLYGGEKF [PTPN11_Y66_Y62D], the enrichment score was inactive: 0.544.
Turning to AELVRYYMEHH [PTPN11_Y80_Q79R], the enrichment score was inactive: 0.932.
On the same count and under the same terms, to DYYDLYGGQKF [PTPN11_Y66_E69Q] belongs inactive: 0.829; to ADLVQYYMEHH [PTPN11_Y80_E76D], inactive: 1.04; to DFFDLYGGKKF [PTPN11_Y66_E69K_YF], inactive: 0.949.
On to ADLVQYFMEHH [PTPN11_Y80_E76D_YF], for which the enrichment score is inactive: 1.22.
Still for that read-out and setting: to DDFDLYGGEKF [PTPN11_Y66_Y62D_YF] belongs inactive: 0.612; to AVLVQYYMEHH [PTPN11_Y80_E76V], inactive: 2.6.
Still for that read-out and setting: to AELVQYFMEHH [PTPN11_Y80_YF] belongs inactive: 1.26; to DYCDLYGGEKF [PTPN11_Y66_Y63C], inactive: 0.71; to DYYDLYGGEKL [PTPN11_Y66_F71L], inactive: 0.931.
Still for that read-out and setting: next, DYYDLYGGEKF [PTPN11_Y66]: inactive: 1.16; FFFDLYGGEKF [PTPN11_Y66_D61Y_YF]: inactive: 1.77; DFFDLYGGEKL [PTPN11_Y66_F71L_YF]: inactive: 0.798.
In the case of AKLVQYYMEHH [PTPN11_Y80_E76K], the enrichment score is inactive: 2.3.

Another experiment deals with SHP2 N-SH2 domain T52S. The description is as above. Conditions: peptide library: pTyr-Var.
As to AKLVQYFMEHH [PTPN11_Y80_E76K_YF], the enrichment score is active: 3.51.
On the same count and under the same terms, next, DYYDLYGGKKF [PTPN11_Y66_E69K]: inactive: 0.856; GFFDLYGGEKF [PTPN11_Y66_D61G_YF]: inactive: 0.942.
The same measure, in the same setting: next, AALVQYYMEHH [PTPN11_Y80_E76A]: inactive: 1.79.
For DDYDLYGGEKF [PTPN11_Y66_Y62D], the enrichment score was inactive: 0.593.
On the same count and under the same terms, next, AELVRYYMEHH [PTPN11_Y80_Q79R]: inactive: 1.13; DYYDLYGGQKF [PTPN11_Y66_E69Q]: inactive: 0.924; ADLVQYYMEHH [PTPN11_Y80_E76D]: inactive: 1.47.
Still for that read-out and setting: next, DFFDLYGGKKF [PTPN11_Y66_E69K_YF]: inactive: 1.06; ADLVQYFMEHH [PTPN11_Y80_E76D_YF]: inactive: 1.44; DDFDLYGGEKF [PTPN11_Y66_Y62D_YF]: inactive: 0.522.
Still for that read-out and setting: next, AVLVQYYMEHH [PTPN11_Y80_E76V]: active: 3.23; AELVQYFMEHH [PTPN11_Y80_YF]: inactive: 1.49; DYCDLYGGEKF [PTPN11_Y66_Y63C]: inactive: 1.21.
As to DYYDLYGGEKL [PTPN11_Y66_F71L], the enrichment score was inactive: 1.04.
On the same count and under the same terms, to DYYDLYGGEKF [PTPN11_Y66] belongs inactive: 1.03; to FFFDLYGGEKF [PTPN11_Y66_D61Y_YF], inactive: 1.71.
Same read-out and setting: to DFFDLYGGEKL [PTPN11_Y66_F71L_YF] belongs inactive: 0.947; to AKLVQYYMEHH [PTPN11_Y80_E76K], active: 5.5.

The target in a further experiment is SHP2 N-SH2 domain wild-type. Described as above. Conditions: peptide library: pTyr-Var.
As to AKLVQYFMEHH [PTPN11_Y80_E76K_YF], the enrichment score was inactive: 3.16.
The same measure, in the same setting: to DYYDLYGGKKF [PTPN11_Y66_E69K] belongs inactive: 0.915.
Still for that read-out and setting: next, GFFDLYGGEKF [PTPN11_Y66_D61G_YF]: inactive: 1.26; AALVQYYMEHH [PTPN11_Y80_E76A]: inactive: 1.32.
Same read-out and setting: to DDYDLYGGEKF [PTPN11_Y66_Y62D] belongs inactive: 0.775; to AELVRYYMEHH [PTPN11_Y80_Q79R], inactive: 0.972.
As to DYYDLYGGQKF [PTPN11_Y66_E69Q], the enrichment score was inactive: 1.13.
Still for that read-out and setting: next, ADLVQYYMEHH [PTPN11_Y80_E76D]: inactive: 1.23; DFFDLYGGKKF [PTPN11_Y66_E69K_YF]: inactive: 1.51; ADLVQYFMEHH [PTPN11_Y80_E76D_YF]: inactive: 1.29.
The same measure, in the same setting: to DDFDLYGGEKF [PTPN11_Y66_Y62D_YF] belongs inactive: 0.787; to AVLVQYYMEHH [PTPN11_Y80_E76V], inactive: 2.86.
Still for that read-out and setting: to AELVQYFMEHH [PTPN11_Y80_YF] belongs inactive: 1.19; to DYCDLYGGEKF [PTPN11_Y66_Y63C], inactive: 1.24; to DYYDLYGGEKL [PTPN11_Y66_F71L], inactive: 1.01.
Regarding DYYDLYGGEKF [PTPN11_Y66], the enrichment score was inactive: 1.47.
Same read-out and setting: to FFFDLYGGEKF [PTPN11_Y66_D61Y_YF] belongs inactive: 1.6; to DFFDLYGGEKL [PTPN11_Y66_F71L_YF], inactive: 0.839.
Same read-out and setting: next, AKLVQYYMEHH [PTPN11_Y80_E76K]: inactive: 2.41.
